Hit rate of the full screen: of about 5,400 compounds, about 190 (3.5%) showed an effect of 50% or more. The list shows a part of the results.

This assay concerns Vero-E6. Briefly: primary screen, phospholipidosis by LipidTOX staining; higher = more effect of the substance. The note with it: 10 µM. The procedure, abridged:
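Single-concentration screen at 10 μM, with DMSO 0.1 v/v % and amiodarone 10 μM as controls. Read-out is LipidTOX Red phospholipid staining, which tolerates aldehyde fixation, in Vero-E6 cells.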
As to `O=C([O-])CN(CCN(CC(=O)[O-])CC(=O)O)CCN(CC(=O)[O-])CC(=O)O`, the result_ITMP was 0.03%.

On to `CN(C)CCOC(=O)C(c1ccccc1)C1(O)CCCC1` (stereo not drawn), for which the result_ITMP was determined as 4.26%.

As to `Nc1ccc(/N=N/c2ccccc2)c(N)n1`, the result_ITMP was -2.17%.

As to `C[C@H](N[C@@H](CCc1ccccc1)C(=O)O)C(=O)N1Cc2ccccc2C[C@H]1C(=O)O`, the result_ITMP is reported as -0.05%.

With `CO/N=C(/C(=O)NC1C(=O)N2C(C(=O)O)=C(C[N+]3(C)CCCC3)CSC12)c1csc(N)n1` (stereo not drawn), the result_ITMP is -4.42%.

With `O=c1ccc2cc(O[C@@H]3O[C@H](CO)[C@@H](O)[C@H](O)[C@H]3O)c(O)cc2o1`, the result_ITMP amounted to 0.56%.

Regarding `O=C(Nc1ccc(CN2CCOCC2)cc1)c1ccc(-c2cccc(Cl)c2)o1`, the result_ITMP turned out to be 56.3%.

`CN1CCC(=C2c3ccccc3CCn3c(C=O)cnc32)CC1`: the result_ITMP is on record as -2.54%.

Consider `CC[N+](C)(CC)CCC[n+]1c(-c2ccccc2)c2cc(N)ccc2c2ccc(N)cc21`, for which the result_ITMP is on record as -12.1%.

In the case of `O=C(O)c1ccccc1Nc1cccc(C(F)(F)F)c1`, the result_ITMP is -2.29%.

`NC1=NC(=O)N([C@H]2C[C@H](O)[C@@H](CO)O2)CN1`: the result_ITMP is recorded as -4.19%.

`O=C(Nc1cccc(Br)c1)c1cccc(S(=O)(=O)N2CCCCCC2)c1`: the result_ITMP was -5.52%.

For `O=C(c1ccc(F)cc1)C1CCN(CCn2c(=S)[nH]c3ccccc3c2=O)CC1`, the result_ITMP is -1.66%.

Turning to `O=C(O)Cn1nnc(-c2cc(N3CCC(Oc4cc(F)ccc4Br)CC3)no2)n1`, the result_ITMP is reported as -2.15%.

In the case of `COc1cc2nc(N3CCN(C(=O)COc4c(OC)cccc4C(C)C)CC3)nc(N)c2cc1OC`, the result_ITMP was found to be 22.6%.

As to `CN1CCCCC1Cn1cc(C(=O)c2cc([N+](=O)[O-])ccc2I)c2ccccc21` (stereo not drawn), the result_ITMP worked out at 36.4%.

As to `CC(=O)Nc1ccc(S(=O)(=O)c2ccc(NC(C)=O)cc2)cc1`, the result_ITMP is reported as -4.32%.

With `C[S+](CC[C@H](N)C(=O)[O-])C[C@H]1O[C@@H](n2cnc3c(N)ncnc32)[C@H](O)[C@@H]1O` (stereo partly drawn), the result_ITMP was -7.98%.

Turning to `c1ccc(-c2nn3c(c2-c2ccnc4cc(OCCN5CCOCC5)ccc24)CCC3)nc1`, the result_ITMP is on record as -13.5%.

With `Clc1ccc(C(c2ccccc2Cl)C(Cl)Cl)cc1` (stereo not drawn), the result_ITMP is -2.25%.

`NS(=O)(=O)c1ccc2c(c1)C1C=CCC1C(c1ccc(Br)cc1)N2` (stereo not drawn): the result_ITMP is -2.81%.

Take `CCCCC/C=C\C/C=C\C/C=C\CCCCC(=O)O`: the result_ITMP is -4.09%.

Take `NC1CCN(c2cccnc2)C1` (stereo not drawn): the result_ITMP stood at 2.68%.

Take `O=C(O)Cc1cc2ccccc2nc1C(=O)O`: the result_ITMP was 1.45%.

For the compound `N#Cc1nn(-c2c(Cl)cc(C(F)(F)F)cc2Cl)c(N)c1S(=O)C(F)(F)F` (stereo not drawn), the result_ITMP is listed as -3.47%.

`Cc1cccc(C)c1OCC(=O)N[C@@H](Cc1ccccc1)[C@@H](O)C[C@H](Cc1ccccc1)NC(=O)[C@H](C(C)C)N1CCCNC1=O`: the result_ITMP was -3.25%.

With `CSCC[C@H](NC(=O)[C@H](Cc1ccccc1)NC(=O)CNC(=O)CNC(=O)[C@@H](N)Cc1ccc(O)cc1)C(=O)O`, the result_ITMP is listed as -5.97%.

Take `CNCc1ccc(C)c(NC(=O)c2ccc(Nc3nc(-c4ccccc4)c4ccccc4n3)cc2)c1`: the result_ITMP came out at 67.4%.

In the case of `O=C1CNC(=O)CN1`, the result_ITMP was -1.53%.

On to `O=C1Nc2ccc(Cl)cc2[C@@](C#CC2CC2)(C(F)(F)F)O1`, for which the result_ITMP was -4.09%.

Take `C[C@]12CCC(=O)C=C1CC[C@@H]1[C@@H]2[C@@H](O)C[C@]2(C)C(=O)CC[C@@H]12`: the result_ITMP is on record as -4.8%.

Turning to `NCC(O)c1ccc(O)cc1` (stereo not drawn), the result_ITMP is on record as -3.77%.

Regarding `c1ccc2sc(N3CCN(Cc4ccc5c(c4)OCO5)CC3)nc2c1`, the result_ITMP was -3.98%.

Turning to `CC(C)=CCC[C@](C)(O)[C@H]1CC[C@]2(C)[C@@H]1[C@H](O)C[C@@H]1[C@@]3(C)CC[C@H](O)C(C)(C)[C@@H]3[C@@H](O)C[C@]12C`, the result_ITMP is -1.48%.

Consider `O=C(O)C1(c2ccc(-c3ccc(Cl)c(Cl)c3)c(F)c2)CC1`, for which the result_ITMP was 2.46%.

For `Cn1nccc1Nc1nccc(-c2ccn([C@H](CO)c3ccc(Cl)c(F)c3)c(=O)c2)n1` [R4A_0003897_001 / SPE_A20830788], the result_ITMP came out at 1.66%.

Take `CNCC/C=C/c1cccnc1`: the result_ITMP is on record as -4.64%.

As for `Cc1ncc(CO)c(CN)c1O`, the result_ITMP worked out at 1.44%.

Consider `O=c1[nH]c(CCl)nc2sc3c(c12)CCCC3`, for which the result_ITMP is -2.42%.

Turning to `O=C1c2cccc(O)c2C(=O)c2c(O)cccc21`, the result_ITMP is given as -4.59%.

For `O=c1cc(N2CCOCC2)oc2c(-c3ccccc3)cccc12`, the result_ITMP is -6.91%.

Turning to `Cc1cc(C)c(NC(=O)N(Cc2ccc3c(c2)Cc2ccccc2-3)C2CCCCCC2)c(C)c1`, the result_ITMP was 0.75%.

Turning to `Nc1ncccc1-c1nc2ccc(-c3ccccc3)nc2n1-c1ccc(C2(N)CCC2)cc1`, the result_ITMP was determined as 91.9%.

Consider `O=C(O)C1CN(CCCP(=O)(O)O)CCN1` (stereo not drawn), for which the result_ITMP is reported as -1.3%.

For `CCOC(N)=O`, the result_ITMP is given as -6.37%.

As for `O=C1Nc2ccccc2C2(CCN(CCc3ccc(C(F)(F)F)cc3)CC2)O1`, the result_ITMP is 6.16%.

For the compound `CCC(CO)(C(=O)OC1CC2CCC(C1)[N+]2(C)C)c1ccccc1` (stereo not drawn), the result_ITMP was 0.66%.

With `Cc1cnc(NC(=O)Nc2cc(Br)c(C)cc2OC[C@@H]2CNCCO2)cn1`, the result_ITMP was 23.3%.

Consider `CCCCCN(CCCOC)C(=O)[C@@H](CCC(=O)O)NC(=O)c1ccc(Cl)c(Cl)c1`, for which the result_ITMP was -0.96%.

With `N[C@H](C(=O)O)c1ccc(C(=O)O)c(O)c1`, the result_ITMP is given as -1.24%.

As for `Nc1cc(C(F)(F)F)c(-c2cc(N3CCOCC3)nc(N3CCOCC3)n2)cn1`, the result_ITMP came out at 6.83%.

Consider `CC(C)NNC(=O)c1ccncc1`, for which the result_ITMP is listed as -6.05%.

`Cc1ccc(Sc2cncc3sc(C(N)=O)cc23)cc1`: the result_ITMP is listed as -2.48%.

On to `CNCC(=O)O`, for which the result_ITMP was -4.12%.

As to `O=C1S/C(=C\c2ccc(OCc3cccc(B(O)O)c3)cc2)C(=O)N1Cc1ccc(F)cc1`, the result_ITMP is recorded as 17.3%.

Regarding `C=CCNc1ncnc2ccc(Br)cc12`, the result_ITMP is on record as -2.54%.

Turning to `CC(C)=CCC[C@](C)(O[C@@H]1O[C@H](CO)[C@@H](O)[C@H](O)[C@H]1O)[C@H]1CC[C@]2(C)[C@@H]1[C@H](O)C[C@@H]1[C@@]3(C)CC[C@H](O[C@@H]4O[C@H](CO)[C@@H](O)[C@H](O)[C@H]4O[C@@H]4O[C@H](CO)[C@@H](O)[C@H](O)[C@H]4O)C(C)(C)[C@@H]3CC[C@]12C`, the result_ITMP is -0.31%.

The record behind these values is article PMC13083723 (Patterns, 2026).
